Measured values taken from PubChem BioAssay AID493208 (National Center for Advancing Translational Sciences (NCATS), 2011).
The campaign covered roughly 44,000 compounds. About 340 (0.77%) were called active. Inconclusive results (about 5%) are left out. The call rests on the fitted dose curve; in most records, active means well fitted inhibition curve with a large enough effect; inconclusive means small, poorly fitted or top-dose-only effect; inactive means flat fitted curve, though single readings scatter. This is one part of the list.

Experiment: Acumen qHTS Assay for Inhibitors of the mTORC1 Signaling Pathway in MEF (Tsc2-/-, p53-/-) Cells: Sytravon;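 further: plate controls were DMSO for no effect and rapamycin for full effect; nearly all actives have a fitted effect of over 50% in size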
Conditions: phospho-rpS6 immunofluorescence/PI, 24 h; series mostly up to 38.3 µM; activity change, negative = inhibition: at the top concentration
How it was run: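 Plate MEFs (Tsc2-/-, p53-/-, empty vector) in DMEM/10% FBS; after 24 h add compound, incubate 24 h at 37 degree Celsius; fix in PFA/TX-100, block, stain phospho-rpS6 and 10 uM PI; scan at 488 nm; report % positive cells.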

SMILES | activity change, negative = inhibition
CSc1ncc(Cl)c(C(=O)N(Cc2ccc(N(C)C)cc2)Cc2ccco2)n1 | inactive: -4.78%
Cc1c(Cl)cccc1NC(=O)C(C)n1nnc2sc3c(c2c1=O)CCCC3 (stereo unspecified) | inactive: 1.73%
Cc1c(C)n(C)c2ccc(C(=O)N3CCN(c4ccccc4)CC3)cc12 | inactive: -4.62%
CCCCOc1ccc(CNC(=O)CCCN2C(=O)CSc3c2c(C)nn3-c2ccccc2)cc1 | inactive: 2.67%
CCOC(=O)c1ccccc1NC(=O)c1sc2nc3n(c(=O)c2c1C)CCCC3 | inactive: -5.13%
CCc1ccc(CNC(=O)CN2C(=O)c3cccnc3Oc3ccc(C)cc32)cc1 | inactive: -13%
Cc1ccc2c(=O)cc(C(=O)Nc3ccc(S(=O)(=O)N4CCCCCC4)cc3)oc2c1C | inactive: 2.72%
Cc1cc(C)cc(NC(=O)Cn2c(=O)c3ccccc3n3nncc23)c1 | inactive: -0.894%
Cc1ccc(CNC(=O)Cn2cc(C(=O)c3ccc(F)cc3)c(=O)c3ccc(C)nc32)cc1 | inactive: 7.09%
CCOC(=O)C1CCN(C(=O)C2CCN(C3=NS(=O)(=O)C(c4ccc(C)c(C)c4)=C3C)CC2)CC1 | inactive: -8.53%
Cc1cccc(C2CC(=O)Oc3c2c(=O)n(C)c2ccccc32)c1 (stereo unspecified) | inactive: -13.7%
CCc1ccc(Cc2cnc(NC(=O)c3ccc4c(c3)CC(c3ccccc3)OC4=O)s2)cc1 (stereo unspecified) | inactive: -0.364%
O=C(Cn1c(=O)n(-c2ccc(F)c(Cl)c2)c(=O)c2sc3ccccc3c21)NC1CCCC1 | inactive: -7.75%
Cc1ccc(-n2c(=O)c3oc4ccccc4c3n(Cc3ccccc3F)c2=O)cc1C | inactive: -4.22%
CC(C)CCNC(=O)C1CCC(Cn2c(=O)c3sccc3n(CC(=O)NC(C)C)c2=O)CC1 (stereo unspecified) | inactive: -3.24%
CCC(C)NC(=O)C(=O)Nc1c2c(nn1-c1ccccc1)CS(=O)(=O)C2 (stereo unspecified) | inactive: -0.661%
COc1ccc(CNC(=O)c2cc3c(s2)-c2ccccc2OC3)cc1 | inactive: -6.84%
CCOC(=O)c1c(NC(C)=O)c2c3c(sc2n1Cc1nc(-c2ccccc2C)oc1C)CCCC3 | inactive: 1.93%
O=C(Nc1nc2ccc(F)cc2s1)c1nc(S(=O)(=O)Cc2ccccc2)ncc1Cl | inactive: -8.5%
COc1ccc(NC(=O)CSc2nc3c(oc4ccccc43)c(=O)n2-c2ccc(C)c(C)c2)cc1 | inactive: 1.38%
CC1CN(C(=O)CCC(=O)NCc2ccc(F)cc2)c2cc(Cl)ccc2O1 (stereo unspecified) | inactive: 0.0685%
O=C(c1ccc2c(c1)N(Cc1ccc(Cl)cc1)C(=O)c1ccccc1S2(=O)=O)N1CCCCC1 | inactive: 0.838%
O=C(CN1C(=O)CCSc2ccccc21)Nc1ccccc1F | inactive: -25.8%
CCOc1ccc(CCNC(=O)C2COc3ccccc3C2)cc1OCC (stereo unspecified) | inactive: 1.62%

SMILES | activity change, negative = inhibition
Cc1nc2nc(SCC(=O)NCCc3ccc(Cl)cc3)nn2c(C)c1Cc1ccccc1 | inactive: -7.02%
COC(=O)c1sc2cccc(F)c2c1S(=O)(=O)N1CCN(c2ccc(F)cc2)CC1 | inactive: -10.7%
CCCSc1ncc(Cl)c(C(=O)Nc2nc3ccc(OCC)cc3s2)n1 | inactive: 7.1%
Cc1ccc(CNC(=O)c2ccc3c(=O)n(-c4ccccc4)c(=O)[nH]c3c2)cc1 | inactive: -0.207%
COc1ccc2c(c1)CCc1c(C(=O)Nc3c(C)nn(Cc4ccc(Cl)c(Cl)c4)c3C)noc1-2 | inactive: 0.696%
Cc1ccc(S(=O)(=O)c2nc(-c3cccc(C)c3)oc2N2CCN(c3ccccc3)CC2)cc1 | inactive: -1.21%
COc1cc(OC)c(NC(=O)NCc2ccc3c(c2)CCN3C(=O)c2ccccc2)cc1Cl | inactive: -1.16%
CCc1ccccc1NC(=O)CSc1nc(-c2ccccc2OC)nc2c1Cc1c(CO)cnc(C)c1O2 | inactive: -6.27%
Cc1ccc2c(c1)cc1c(=O)n(CC(=O)NC3CCCCC3)nc(C)n12 | inactive: -2.53%
CC(=O)c1cc(C(=O)Nc2cc(C)cc(C)c2)c2ccccn12 | inactive: -0.412%
Cc1cccn2c(=O)c3cc(C(=O)NCc4ccccc4)c(=N)n(CCOCCO)c3nc12 | inactive: 0.628%
CCOC(=O)CC1c2cc(OCC)c(OCC)cc2CCN1C(=O)Nc1cccc(Cl)c1 (stereo unspecified) | inactive: -7.6%
CCC(=O)Nc1ccc(-c2nnc3c4ccccc4c(C)nn23)cc1 | inactive: 0.0732%
O=C(NCc1ccccc1)c1ccc2c(c1)CCN2S(=O)(=O)c1ccccc1 | inactive: -15.7%
CCCc1ccc(S(=O)(=O)N2CCC(Oc3ccc(-n4cnnn4)cc3)CC2)cc1 | inactive: -3.3%
CCOC(=O)c1[nH]c(C)c(CCC(=O)NCc2ccccc2Cl)c1C | inactive: 0%
CNC(=O)c1ccc(Nc2nnc(-c3ccc(C)c(S(=O)(=O)N(C)C)c3)c3ccccc23)cc1 | inactive: 12.1%
Cc1ccc(NC(=O)CSc2nc(=O)n(CCCN(C)C)c3c2CCC3)cc1F | inactive: -2.74%
CCCCC(CC)CNC(=O)C1CCC(CNS(=O)(=O)c2cccc3nsnc23)CC1 (stereo unspecified) | inactive: -18.6%
Cc1cc(C)cc(OCCCn2c(CCNC(=O)C3CCCCC3)nc3ccccc32)c1 | inactive: 0.0309%
COc1ccc(CCNC(=O)CCCn2c(=O)c3ccccc3n(Cc3c(C)cc(C)cc3C)c2=O)cc1OC | inactive: -3.54%
CCC(=O)N1c2ccc(S(=O)(=O)N3CCC(C)CC3)cc2CC1C (stereo unspecified) | inactive: -18%
O=C(CC1C(=O)OCCN1Cc1ccccc1)Nc1ccc(F)cc1 (stereo unspecified) | inactive: -1.57%
Cc1ccc(C)c(NC(=O)Cn2cc(C(=O)c3ccc(Cl)cc3)c(=O)c3ccc(C)nc32)c1 | inactive: 3.33%

SMILES | activity change, negative = inhibition
N#Cc1ccc(CSc2nc3c(c(=O)[nH]2)CCC3)cc1 | inactive: 1.27%
COc1cc(NC(=O)CSc2nc(-c3ccc(C)cc3)nc3c2Cc2ccccc2O3)cc(OC)c1 | inactive: -9.37%
Cc1cccc(C)c1-n1ncc(C(=O)N2CCN(c3ccccn3)CC2)c1C1CCN(C(=O)OC(C)(C)C)CC1 | inactive: 5.97%
Cc1cccc(-c2nc3c4ccccc4nc(NCc4ccc(Cl)cc4)n3n2)c1 | inactive: -1.56%
CC(=O)c1ccc(NC(=O)CSc2cn(CC(=O)N3CCCCCC3)c3ccccc23)cc1 | inactive: -14%
COc1ccc(NC(=O)CSc2oc(-c3ccco3)nc2S(=O)(=O)c2ccc(Br)cc2)c(OC)c1 | inactive: -0.108%
CCc1ccc2oc(-c3cc(NC(=O)C(C)C)cc(C)c3O)nc2c1 | inactive: -0.253%
CC(C)Cn1c(=O)c2sccc2n2c(CCCC(=O)NCc3ccccc3Cl)nnc12 | inactive: -1.3%
COc1cccc(CNC(=O)C2CCN(S(=O)(=O)c3cn(C)cn3)CC2)c1 | inactive: 9.83%
CC(=O)N1c2ccc(S(=O)(=O)N3CCCCCC3)cc2CC1C(=O)NCc1ccc(Cl)cc1 (stereo unspecified) | inactive: 0%
CCCOc1ccc(-c2nonc2NC(=O)c2oc3ccc(C)cc3c2C)cc1OCCC | inactive: 4.82%
CCOC(=O)N1CCC(NC(=O)c2cnn(-c3cccc(Cl)c3C)c2C2CCN(C(=O)OC(C)(C)C)CC2)CC1 | inactive: 5.56%
Oc1ccc(Cl)cc1C1=Nc2ccccc2N=C(c2cccc(Br)c2)C1 | inactive: -12.4%
CN1CCN(c2nc3c(S(=O)(=O)c4ccc(Br)cc4)nnn3c3ccsc23)CC1 | inactive: -1.38%
CCc1sc(Nc2cccc(Cl)c2C)nc1-c1cc2cccc(OC)c2oc1=O | inactive: -3.07%
COc1cccc(CN2CCc3nc(N4CCN(c5ncccn5)CC4)ncc3C2)c1 | inactive: 0%
O=C(CC1C(=O)OCCN1Cc1ccccc1)Nc1cccc(C(F)(F)F)c1 (stereo unspecified) | inactive: 0.287%
COc1ccc(OC)c(NC(=O)c2cc(CN3CCCC3)on2)c1 | inactive: -11.7%
Cc1cccc(Cn2cccc2CNS(=O)(=O)c2ccc(Br)cc2)c1 | inactive: 0%
COc1ccc(-c2cc3ccc(O)c(CN4CCC(C)CC4)c3oc2=O)cc1OC | inactive: 1.08%
COc1cc(-c2nnc(SCCOc3cc(C)cc(C)c3)o2)cc(OC)c1OC | inactive: -11.5%
COc1ccc(S(=O)(=O)Nc2cc(S(=O)(=O)c3ccccc3)c(O)c(C)c2C)cc1 | inactive: 3.38%
Cc1ccccc1CN1C(=O)c2ccccc2S(=O)(=O)c2ccc(C(=O)OCC3CCCO3)cc21 (stereo unspecified) | inactive: -6.27%
Cc1ccc(C(C)C)c(OC(C)C(=O)NCC2(N(C)C)CCCCC2)c1 (stereo unspecified) | inactive: -12.4%

SMILES | activity change, negative = inhibition
Cc1cc(OC(C)C(=O)Nc2sc3c(c2C(N)=O)CCCC3)ccc1Cl (stereo unspecified) | inactive: 1.22%
CC(NC(=O)CN1C(=O)c2cccnc2Oc2ccc(Cl)cc21)c1ccccc1 (stereo unspecified) | inactive: -0.182%
CCOc1ccccc1CNc1nc2nc(C)cc(C)n2n1 | inactive: 9.22%
O=C(NCCCN1CCN(c2ccccc2)CC1)c1ccc2nc(Cc3ccccc3)oc2c1 | inactive: 0%
CC(C)NC(=O)CCC(=O)N1Cc2ccccc2Oc2ncccc21 | inactive: -3.74%
CCC1CCCCN1C(=O)CSc1nc2c([nH]c3ccccc32)c(=O)n1-c1ccc(OC)cc1 (stereo unspecified) | inactive: 2.93%
Cn1ccc2cc(S(=O)(=O)N3CCN(C(=O)Nc4ccc(F)cc4F)CC3)ccc21 | inactive: -2.39%
CC1Cc2ccccc2N1S(=O)(=O)c1nnc(NC(=O)c2ccccc2)s1 (stereo unspecified) | inactive: 13.7%
COC(=O)c1nnn(CC(=O)NC(=O)Nc2c(C)cccc2C)c1C(=O)OC | inactive: 7.9%
Cc1ccccc1C(=O)n1nc(-c2cccnc2)nc1NCc1ccccc1 | inactive: -4.69%
CCCCN(CC)CCCNC(=O)c1nn(C)c2c1CSc1ccccc1-2 | inactive: 1.09%
COc1ccc(OC)c(CCNC(=O)Cn2ncc3c([nH]c4ccccc43)c2=O)c1 | inactive: -7.05%
NS(=O)(=O)c1ccc(NC(=O)C2Cc3ccccc3N2C(=O)c2ccccc2)cc1 (stereo unspecified) | inactive: 4.02%
CCn1cc2nc(SCC(=O)Nc3ccccc3C(F)(F)F)n(Cc3ccc(C)cc3)c(=O)c2n1 | inactive: -8.64%
COCCCNC(=O)CCC(=O)NNc1nc2ccccc2c2nc(C)nn12 | inactive: -3.25%
COc1ccc(N2CC(NC(=O)C(c3ccccc3)c3ccccc3)CC2=O)cc1OC (stereo unspecified) | inactive: 3.23%
CC(C)Oc1ccc(-c2nc3c(C#N)c[nH]n3c2NC2CCCCC2)cc1 | inactive: 0%
CCOC(=O)c1c(C)oc2ncnc(Nc3ccc(OC)c(OC)c3)c12 | inactive: 0.132%
COc1ccc(Cn2c(=O)c3cccnc3n(Cc3cccc(F)c3)c2=O)cc1 | inactive: -21.1%
COc1ccccc1CNC(=O)c1ccc2nc(CCc3ccccc3)oc2c1 | inactive: -1.05%
COC(=O)c1ccc(C(=O)OC)c(NC(=O)c2ccc(-c3ccccc3)s2)c1 | inactive: -16.6%
COc1ccccc1NC(=O)c1c(C)cc(C)nc1SCC(=O)c1ccc(Cl)cc1 | inactive: -0.986%
CC(C)Oc1ccc(C(=O)N(Cc2ccco2)Cc2cccs2)cc1 | inactive: -4.87%
CCOC(=O)c1ccccc1NC(=O)CSc1nccn1Cc1ccco1 | inactive: -3.77%
